{
  "source": "the supplement of paper PMC3334620",
  "note": "In all, about 33,000 sequences were measured (“E-score (-0.5 to 0.5)”: median about -0.043, highest 2% from about 0.37 on). Some of the results follow.",
  "data": [
    {"biological_target": "T1, Upc2 (UniProt Q12151)", "T1 sequence": "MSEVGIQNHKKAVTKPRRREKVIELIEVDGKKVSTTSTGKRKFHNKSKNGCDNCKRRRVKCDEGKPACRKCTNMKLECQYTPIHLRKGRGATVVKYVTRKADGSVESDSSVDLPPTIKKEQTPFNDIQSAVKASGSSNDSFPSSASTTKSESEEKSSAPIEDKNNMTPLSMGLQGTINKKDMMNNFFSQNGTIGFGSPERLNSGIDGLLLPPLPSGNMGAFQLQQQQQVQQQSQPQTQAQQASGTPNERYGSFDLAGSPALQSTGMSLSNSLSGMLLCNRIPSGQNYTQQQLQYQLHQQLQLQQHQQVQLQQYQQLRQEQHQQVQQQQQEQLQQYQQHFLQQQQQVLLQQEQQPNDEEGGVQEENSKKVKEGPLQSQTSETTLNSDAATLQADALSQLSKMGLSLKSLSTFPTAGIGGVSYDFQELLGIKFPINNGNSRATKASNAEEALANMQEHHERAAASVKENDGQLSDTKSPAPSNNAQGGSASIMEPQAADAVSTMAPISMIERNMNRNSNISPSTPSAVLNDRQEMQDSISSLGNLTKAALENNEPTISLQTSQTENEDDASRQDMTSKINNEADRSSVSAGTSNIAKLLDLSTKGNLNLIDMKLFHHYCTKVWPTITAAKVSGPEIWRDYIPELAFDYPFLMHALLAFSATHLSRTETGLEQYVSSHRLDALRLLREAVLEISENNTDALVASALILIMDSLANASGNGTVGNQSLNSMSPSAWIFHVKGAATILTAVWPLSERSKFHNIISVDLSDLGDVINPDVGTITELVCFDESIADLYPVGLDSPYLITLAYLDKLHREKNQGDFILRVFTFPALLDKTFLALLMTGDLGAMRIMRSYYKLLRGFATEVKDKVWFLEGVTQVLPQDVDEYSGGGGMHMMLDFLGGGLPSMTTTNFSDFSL", "assay": "PBM E-score (8-mer binding enrichment) (E-score (-0.5 to 0.5)); higher = stronger / more preferred TF binding; most listed sequences are background and not binding sites", "settings": "protein concentration: 200 nM; construct: GST-full length", "in_short": "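The E-score, a modified Wilcoxon-Mann-Whitney statistic, was computed by the Universal PBM Analysis Suite for every ungapped eight-base word pooled with its reverse complement. Scans behind it were normalised with masliner after bound GST-tagged yeast transcription factors were detected with fluorescent anti-GST. The proteins, at about 100-200 nM, had been applied to universal all-10-mer Agilent arrays made double-stranded by primer extension.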", "values": [
      {"sequence": "ATTATGTG", "PBM E-score": -0.0485},
      {"sequence": "AACAGCCA", "PBM E-score": 0.0964},
      {"sequence": "CTCTAATA", "PBM E-score": -0.067},
      {"sequence": "ACCTCGTG", "PBM E-score": 0.2},
      {"sequence": "CTACATCA", "PBM E-score": -0.309},
      {"sequence": "TAGTATCA", "PBM E-score": 0.0429},
      {"sequence": "GAAAGGAA", "PBM E-score": -0.0406},
      {"sequence": "AGGTGATG", "PBM E-score": -0.274},
      {"sequence": "GCACTGTA", "PBM E-score": 0.157},
      {"sequence": "ATTGGAAC", "PBM E-score": -0.0244},
      {"sequence": "AATGACCT", "PBM E-score": -0.184},
      {"sequence": "CCATGGAA", "PBM E-score": -0.229},
      {"sequence": "GTGTGGAA", "PBM E-score": 0.0388},
      {"sequence": "CTCTGTTA", "PBM E-score": -0.0751},
      {"sequence": "AGTAGAGG", "PBM E-score": -0.146},
      {"sequence": "TAACTGTA", "PBM E-score": 0.133},
      {"sequence": "AGTTACGC", "PBM E-score": 0.0981},
      {"sequence": "GCCACGAC", "PBM E-score": 0.0171},
      {"sequence": "CTGACCAG", "PBM E-score": -0.147},
      {"sequence": "ATAGACGG", "PBM E-score": -0.125},
      {"sequence": "AGCGAGAG", "PBM E-score": 0.229},
      {"sequence": "GAATGCCC", "PBM E-score": 0.0462},
      {"sequence": "ATGTGGAG", "PBM E-score": -0.168},
      {"sequence": "CCAGATTC", "PBM E-score": -0.298},
      {"sequence": "CACGCCCG", "PBM E-score": 0.111},
      {"sequence": "TCGCAGCA", "PBM E-score": -0.00639},
      {"sequence": "GAAACATC", "PBM E-score": -0.115},
      {"sequence": "ACCTAATC", "PBM E-score": 0.105},
      {"sequence": "AAAGATAT", "PBM E-score": -0.00132},
      {"sequence": "GGAAGCAA", "PBM E-score": -0.0611},
      {"sequence": "GACACGGC", "PBM E-score": -0.187},
      {"sequence": "ATCATTTA", "PBM E-score": 0.184},
      {"sequence": "CATAAGGC", "PBM E-score": 0.0399},
      {"sequence": "ATTGCGCG", "PBM E-score": 0.111},
      {"sequence": "AAACCCTG", "PBM E-score": -0.0046},
      {"sequence": "CCCCAGCG", "PBM E-score": -0.23},
      {"sequence": "CACTCGGG", "PBM E-score": 0.0146},
      {"sequence": "TACCCCAA", "PBM E-score": -0.158},
      {"sequence": "AGGTGCTG", "PBM E-score": -0.387},
      {"sequence": "AAAATTAG", "PBM E-score": -0.155},
      {"sequence": "AACGAGAC", "PBM E-score": 0.437},
      {"sequence": "CATACAAA", "PBM E-score": 0.114},
      {"sequence": "AATACAGT", "PBM E-score": -0.0568},
      {"sequence": "CTCACGTA", "PBM E-score": 0.141},
      {"sequence": "AAGTTTAA", "PBM E-score": -0.0222},
      {"sequence": "CGAACGTC", "PBM E-score": 0.135},
      {"sequence": "AAAGGGTT", "PBM E-score": -0.176},
      {"sequence": "ACATACAA", "PBM E-score": -0.112},
      {"sequence": "GACCTGCA", "PBM E-score": -0.235},
      {"sequence": "ATGCCTGA", "PBM E-score": -0.198},
      {"sequence": "ATTAGCCC", "PBM E-score": -0.138},
      {"sequence": "CTCCCAAG", "PBM E-score": -0.163},
      {"sequence": "GTCCTTCA", "PBM E-score": -0.276},
      {"sequence": "CATCCGTC", "PBM E-score": 0.0263},
      {"sequence": "AGATTGCC", "PBM E-score": -0.282},
      {"sequence": "CGACAATA", "PBM E-score": 0.212},
      {"sequence": "TCGCATAA", "PBM E-score": 0.383},
      {"sequence": "GTGATACA", "PBM E-score": -0.0293},
      {"sequence": "ACTCAGGC", "PBM E-score": -0.25},
      {"sequence": "CCTGTCAA", "PBM E-score": -0.0925},
      {"sequence": "AGCACCCT", "PBM E-score": -0.2},
      {"sequence": "GTTATGTA", "PBM E-score": -0.097},
      {"sequence": "ATCCATTG", "PBM E-score": -0.121},
      {"sequence": "GGCATGGA", "PBM E-score": -0.201},
      {"sequence": "AGCGCCAG", "PBM E-score": 0.0891},
      {"sequence": "CTGAATGC", "PBM E-score": -0.251},
      {"sequence": "AACATATC", "PBM E-score": 0.0754},
      {"sequence": "CGGGAGAC", "PBM E-score": -0.215},
      {"sequence": "GCTCGGGA", "PBM E-score": 0.0612},
      {"sequence": "AGGAGCTG", "PBM E-score": -0.439},
      {"sequence": "AAGGGCGA", "PBM E-score": -0.141},
      {"sequence": "TCCAGGGA", "PBM E-score": -0.201},
      {"sequence": "CACACTCC", "PBM E-score": -0.0542},
      {"sequence": "ACAGGGCG", "PBM E-score": 0.0317},
      {"sequence": "ATCCCGTG", "PBM E-score": 0.0975},
      {"sequence": "AAGTAATC", "PBM E-score": -0.0781},
      {"sequence": "CCATGCCA", "PBM E-score": -0.227},
      {"sequence": "AGTGAAAG", "PBM E-score": -0.16},
      {"sequence": "CAAGGTCA", "PBM E-score": -0.0884},
      {"sequence": "ATTCTCGC", "PBM E-score": -0.118},
      {"sequence": "ATGTGTGA", "PBM E-score": -0.171},
      {"sequence": "ATCTTTCC", "PBM E-score": -0.0675},
      {"sequence": "GATACGTA", "PBM E-score": 0.254},
      {"sequence": "CCCGTTTC", "PBM E-score": 0.197},
      {"sequence": "CAGGATAG", "PBM E-score": 0.0798},
      {"sequence": "AGGTGCCC", "PBM E-score": -0.0887}
    ]}
  ]
}
